Data published in PubChem BioAssay AID504332 (National Center for Advancing Translational Sciences (NCATS), 2011).
Several values for one entry are separate records, joined by “and”; a condition that tells them apart may be missing. Equal values may be shown once. The campaign covered roughly 350,000 compounds. About 31,000 (8.9%) were called active. The inconclusive results got no clear call from the source; some entries with a clear call stand among them for comparison. Calls follow the shape of the dose curve; as a rule, active = well fitted inhibition curve with a large enough effect; inconclusive = small, poorly fitted or top-dose-only effect; inactive = no such curve, though single readings can be large or run the other way. Where the call is inconclusive, the potency comes from a doubtful curve fit.

target: Histone-lysine N-methyltransferase EHMT2 (Homo sapiens) (UniProt Q96KQ7); assay: qHTS Assay for Inhibitors of Histone Lysine Methyltransferase G9a; conditions: G9a H3K9 monomethylation, AlphaScreen, 2 h; activity, negative = inhibition: at 59 µM (top of the series) unless noted; also: nearly all actives have a fitted effect of over 75% in size
Procedure, shortened: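 Using a bead-based AlphaScreen, monomethylated H3K9 product from 2 h room-temperature reactions (G9a 20 nM, peptide 500 nM, SAM 20 uM) was detected with 0.5 ug/mL rabbit anti-H3K9me1 antibody.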
% is scaled to controls: 0 for no effect and ±100 for the full control effect; potency is read from the fitted curve at half-maximal effect; tags tell the direction and shape of the fitted curve.

Sequence of UniProt Q96KQ7 (Q96KQ7 whole entry, looked up): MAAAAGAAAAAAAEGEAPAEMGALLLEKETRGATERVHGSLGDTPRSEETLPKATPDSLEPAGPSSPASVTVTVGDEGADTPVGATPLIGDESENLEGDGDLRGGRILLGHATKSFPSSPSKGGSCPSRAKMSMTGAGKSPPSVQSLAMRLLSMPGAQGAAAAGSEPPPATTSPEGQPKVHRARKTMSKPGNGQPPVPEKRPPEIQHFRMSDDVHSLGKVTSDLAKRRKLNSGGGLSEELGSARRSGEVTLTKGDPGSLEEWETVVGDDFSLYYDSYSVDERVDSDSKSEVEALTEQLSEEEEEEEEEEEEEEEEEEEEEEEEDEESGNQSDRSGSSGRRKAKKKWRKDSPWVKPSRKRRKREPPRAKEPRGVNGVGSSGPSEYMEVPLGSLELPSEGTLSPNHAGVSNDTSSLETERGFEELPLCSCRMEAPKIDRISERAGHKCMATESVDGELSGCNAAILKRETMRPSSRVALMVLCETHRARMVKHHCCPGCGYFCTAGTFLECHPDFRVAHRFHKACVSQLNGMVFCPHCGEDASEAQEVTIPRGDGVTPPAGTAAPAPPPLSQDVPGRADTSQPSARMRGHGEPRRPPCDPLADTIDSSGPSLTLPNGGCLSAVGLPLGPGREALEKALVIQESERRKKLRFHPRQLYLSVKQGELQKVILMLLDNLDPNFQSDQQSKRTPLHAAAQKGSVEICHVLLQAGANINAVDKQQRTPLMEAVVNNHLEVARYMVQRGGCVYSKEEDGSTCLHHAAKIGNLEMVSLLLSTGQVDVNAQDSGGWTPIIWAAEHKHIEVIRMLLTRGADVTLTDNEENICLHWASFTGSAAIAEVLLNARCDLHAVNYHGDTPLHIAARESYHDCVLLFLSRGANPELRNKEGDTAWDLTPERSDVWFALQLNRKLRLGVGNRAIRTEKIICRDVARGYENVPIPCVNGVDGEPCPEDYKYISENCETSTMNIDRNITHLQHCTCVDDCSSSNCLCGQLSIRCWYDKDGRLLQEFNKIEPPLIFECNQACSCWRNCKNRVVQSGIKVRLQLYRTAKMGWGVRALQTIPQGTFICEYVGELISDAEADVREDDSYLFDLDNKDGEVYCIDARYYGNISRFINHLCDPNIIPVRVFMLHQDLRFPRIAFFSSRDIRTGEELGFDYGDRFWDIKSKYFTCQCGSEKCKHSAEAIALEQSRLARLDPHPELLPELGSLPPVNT

SMILES | Potency | activity, negative = inhibition
Cc1ccc(C)c(OCCCCn2ccnc2)c1 | inconclusive: 35.5 µM [inhibitor, single point] | 
O=C(COc1ccc(Cl)cc1)NNC(=O)c1ccccc1C(=O)O | inconclusive: 3.16 µM [inhibitor, partial curve, poor fit] | 
CNc1nccc(-c2ccc(F)cc2)c1C#N |  | inactive: -0.108% [at 102 µM]
CCC(C)NC(=O)CSc1nc2n[nH]c(C)c2c(=N)n1-c1ccc(OC)cc1 (centres undefined) |  | inactive: 17% [at 2.33 µM]
COc1ccccc1CN1CCNC(=O)C1CC(=O)NCCCn1cccn1 (centres undefined) |  | inactive: -2.48% [at 102 µM]
O=S(=O)(Nc1nc2n(n1)C(c1ccc(F)cc1)C=C(c1ccccc1)N2)c1ccccc1 (centres undefined) | inconclusive: 39.8 µM [inhibitor, partial curve, poor fit] | 
Cc1ccc(/C=N/c2sc3c(c2C#N)CCCCC3)o1 | active: 14.1 µM | 
Cc1cccc(C(C)C)c1NC(=O)Cc1ccc(S(=O)(=O)N2CCOCC2)s1 |  | inactive: 9.18% [at 2.33 µM]
COC(=O)C1=C(C)N(Cc2ccccc2)C(=O)N[C@H]1c1ccccc1 | inconclusive: 79.4 µM [inhibitor, single point] | 
COc1ccc(/C=N/n2cncn2)cc1COc1ccc(NC(C)=O)cc1 |  | inactive: 2.06% [at 12.7 µM]
COc1cccc(C(=O)N=c2sc3c(C)ccc(OC)c3n2C)c1 | inconclusive: 25.1 µM [inhibitor, partial curve, poor fit] | 
CCN(CC)S(=O)(=O)c1cccc2cc(C(=O)O)c(O)cc12 | inconclusive: 89.1 µM [inhibitor, single point] | 
CC(=O)c1cnc2nc(SCc3ccccc3)nn2c1C |  | inactive: 73.7% [at 102 µM]
CN(C(=O)c1cc2nc(-c3ccco3)cc(C(F)(F)F)n2n1)c1ccc(OC(F)(F)Cl)cc1 |  | inactive: -7.89%
CCOC(=O)c1sc2nc(CN3CCCCC3)nc(Cl)c2c1C | active: 50.1 µM | 
COc1cc(NC(=O)C2CSC3(C)CCC(=O)N23)c(OC)cc1Cl (centres undefined) | inconclusive: 89.1 µM [inhibitor, partial curve, poor fit] | 
NS(=O)(=O)c1ccc(N/N=C/c2cn(-c3ccccc3)nc2-c2cccs2)c([N+](=O)[O-])c1 |  | inconclusive: -53.3% [inhibitor]
CCOc1ccc(C(=O)C(c2ccccc2)N2CCOCC2)cc1 (centres undefined) |  | inactive: 5.56%
O=C(O)/C=C/C(=O)c1ccc2c(c1)NC(=O)CO2 | active: 3.16 µM | 
O=C(c1ccco1)N1CCN(c2nnc(-c3ccccc3)c3ccccc23)CC1 | inconclusive: 89.1 µM [inhibitor, single point] | 
COc1ccc(-c2csc(N(CCCN3CCOCC3)C(=O)CCl)n2)cc1 | active: 35.5 µM | 
CCOc1ccc(-c2nnc3sc(COc4ccc(C)cc4)nn23)cc1 | inconclusive: 50.1 µM [inhibitor, partial curve] | 
CC(=O)Nc1cc(OC(C)=O)c2nonc2c1OC(C)=O |  | inconclusive: -112% [inhibitor]
Cc1ccc(-c2nc(SCCOc3ccccc3C)n3[nH]c(=O)cc3n2)cc1 |  | inactive: 67.5%
COc1ccc(CCN2CCC(Nc3nc4ccccc4n3Cc3ccc(F)cc3)CC2)cc1 | inconclusive: 5.62 µM [inhibitor, partial curve, poor fit] and inconclusive: 25.1 µM [inhibitor, single point] | 

SMILES | Potency | activity, negative = inhibition
C/C(=N\NC(=S)NC(C)C)c1ccc2c(c1)OCCO2 | inconclusive: 39.8 µM [inhibitor, single point] | 
CC(CCc1ccccc1)NCc1cccc2ccccc12 (centres undefined) | inconclusive: 11.2 µM [inhibitor, partial curve, poor fit] | 
O=C(N/N=C/c1ccco1)Nc1ccccc1 | active: 79.4 µM | 
CCOc1ccc(/C(O)=C/C(=O)C(=O)Nc2ccc(S(=O)(=O)NC(C)=O)cc2)cc1 | inconclusive: 56.2 µM [inhibitor, partial curve, poor fit] | 
CC(C)OCCCn1c(SCC(=O)N2CCc3ccccc32)nc2ccccc2c1=O | inconclusive: 22.4 µM [inhibitor, partial curve, poor fit] | 
CCN(Cc1ccncc1)C(=O)C(CO)c1ccccc1 (centres undefined) | inactive | 
Oc1ccccc1C(=S)N1CCCCC1 | active: 10 µM | 
O=C1COc2cc(S(=O)(=O)NCc3ccco3)c(Cl)cc2N1 | inconclusive: 7.08 µM [inhibitor, single point] | 
CCOc1ccccc1N1CC(C(=O)Nc2ccccc2N2CCCC2)CC1=O (centres undefined) | inconclusive: 2.24 µM [inhibitor, partial curve, poor fit] | 
Cc1ccccc1C(=O)Nc1ccc(OCc2cc(=O)n3cccc(C)c3n2)cc1 |  | inactive: -2.38%
Cc1ccc(NC(=O)CSCC(=O)Nc2ncc3c(n2)CC(c2ccco2)CC3=O)cc1 (centres undefined) |  | inconclusive: -86.3% [inhibitor]
O=C(O)CC(NC(=S)NCc1ccccc1)C(=O)O (centres undefined) | inconclusive: 28.2 µM [inhibitor, single point] | 
O=C(O)c1ccc(C(=O)C(=O)c2ccccc2)cc1 | active: 79.4 µM | 
Cc1nc(C)c(N)c(=O)[nH]1 | active: 50.1 µM | 
Nc1nc(SCc2ccc([N+](=O)[O-])cc2)c2ncn([C@@H]3O[C@H](CO)[C@@H](O)[C@H]3O)c2n1 | inactive | 
Cc1cc(/C=N/NC(=O)c2ccc(CN3CCOCC3)cc2)c(C)n1-c1ccccc1 | inconclusive: 50.1 µM [inhibitor, partial curve, poor fit] | 
CCOc1cc(N2CCOCC2)c(OCC)cc1NC(=O)c1[nH]c(C)c(C(C)=O)c1C | inconclusive: 8.91 µM [inhibitor, single point] | 
O=C(c1cccs1)N1CCCc2ccccc21 |  | inactive: 11.8%
CCOC(=O)Nc1ccc2ncn(C)c(=O)c2c1 | inconclusive: 50.1 µM [inhibitor, partial curve] | 
N/C(=N\OC(=O)COc1ccc(Br)cc1)c1cccnc1 | inconclusive: 79.4 µM [inhibitor, single point] | 
O=C1S/C(=C\c2ccc(N3CCOCC3)o2)C(=O)N1c1ccccc1 | active: 5.01 µM | 
O=[N+]([O-])c1cc(CSC2=NCCN2)ccc1O | active: 25.1 µM | 
CCOc1ccc(CCNC(=O)CSCc2ccc(C)cc2)cc1OCC | inconclusive: 7.08 µM [inhibitor, partial curve, poor fit] | 
CCS(=O)(=O)c1nc(S(=O)(=O)c2ccc(Cl)cc2)c(NCCCN2CCOCC2)s1 | inconclusive: 100 µM [inhibitor, single point] | 
CSc1nsc(SCC(=O)Nc2ccc(C(N)=O)cc2)n1 | inconclusive: 12.6 µM [inhibitor, partial curve] | 

SMILES | Potency | activity, negative = inhibition
CC(Sc1nc(=O)cc(N)n1CCc1ccccc1)C(=O)Nc1ccc(Cl)cc1 (centres undefined) |  | inactive: 3.99%
Cc1cccc(CN2CCC(CNC(=O)c3c(C)oc4ncnc(N5CCCCC5)c34)CC2)c1 |  | inactive: -22.4%
O=C(/C=C/c1ccccc1)NNc1ccc(Cl)cc1 | active: 8.91 µM | 
COc1ccc(NC(=O)CSc2nnc(-c3ccccc3Cl)n2Cc2ccco2)c(OC)c1 | inconclusive: 56.2 µM [inhibitor, single point] | 
Cc1oc2ccc(O)c(CN(C)Cc3ccccc3)c2c1C(=O)Nc1ccccc1 | inconclusive: 8.91 µM [inhibitor, partial curve, poor fit] | 
O=C(CCc1cn(Cc2ccc(F)cc2)c2ccccc12)NCCc1ccc(Cl)cc1 |  | inactive: -3.82%
O=C(O)c1ccc(CSc2nnc(COc3ccccc3)o2)cc1 | active: 44.7 µM | 
Cc1ccc(OCC(=O)OCC(=O)c2cccc([N+](=O)[O-])c2)cc1C | inconclusive: 89.1 µM [inhibitor, single point] | 
CCS(=O)(=O)N1Cc2ccccc2CC1C(=O)Nc1ccc(OC)c(OC)c1 (centres undefined) | inconclusive: 89.1 µM [inhibitor, single point] | 
CSc1nnc(NC(=O)c2ccc(S(=O)(=O)N(C)C)cc2)s1 | active: 22.4 µM | 
COc1ccc(-c2nn(-c3ccccc3)cc2/C=N/Nc2cccc(C(=O)O)c2)cc1 | active: 22.4 µM | 
Cn1c(SCC(=O)N2c3ccccc3Sc3ccc(Cl)cc32)nnc1-c1ccco1 | inconclusive: 39.8 µM [inhibitor, single point] | 
O=C(NCCOC(=O)C1COc2ccccc2O1)c1cccnc1 (centres undefined) | active: 50.1 µM | 
CCN(CC)CCNC(=O)c1c(C)oc2ncn(C)c(=O)c12 |  | inactive: 1.88%
CCOc1ccc(N=C(C)C2=C(O)c3ccccc3C2=O)cc1 | inconclusive: 14.1 µM [inhibitor, partial curve, poor fit] | 
CC(C)(Oc1ccc(Cl)cc1)C(=O)NCc1ccc(S(N)(=O)=O)cc1 | active: 44.7 µM | 
COc1ccc(C(CC(=O)N2CCOCC2)c2c(OC)cc(OC)c3c(-c4ccccc4)cc(=O)oc23)cc1 (centres undefined) |  | inactive: -16.9%
Cc1ccc(NC(=O)Nc2nnc(N3CCCC3)s2)cc1 | inconclusive: 28.2 µM [inhibitor, partial curve, poor fit] | 
N#Cc1nc(-c2cccs2)oc1NCCc1ccccc1 | active: 35.5 µM | 
CCOc1ccccc1NC(=O)CSc1nnc(-c2cnccn2)n1CC |  | inactive: 17.1%
CC(=O)C1=C(O)C(=O)N(c2nnn(C)n2)C1c1cccs1 (centres undefined) | inconclusive: 89.1 µM [inhibitor, single point] | 
Cc1ccccc1N1CC(C(=O)Nc2nnc(SCC(=O)Nc3nccs3)s2)CC1=O (centres undefined) | inconclusive: 31.6 µM [inhibitor, single point] | 
Cc1ncc([N+](=O)[O-])n1CCO | inactive | 
CN(C(=O)c1ccno1)c1nnc(-c2ccccn2)s1 | inconclusive: 39.8 µM [inhibitor, single point] | 
